Reference: publication PMC10668032
This is one part of the list. At the low end of the ranking, values are background and their order means little.

biological target: SIX1-Q177R homeodomain (UniProt Q15475); assay: universal protein binding microarray; details: Universal all-10-mer PBM (8x60K, AMADID 030236), 300 nM GST-tagged protein, Alexa Fluor 488 anti-GST; buffer, salt, pH and temperature not stated; high values mean tight binding; most listed sequences are background and not binding sites; double strand, one strand shown

Sequence	binding signal [E-score]
CTGTGAAG	-0.113
ATAGTAGG	0.00996
GCTTGAAA	-0.157
ATCTCATG	0.00215
ATCCCCAC	0.211
ACCCAACG	0.0904
ACGGGTAC	0.095
ATGCGTCC	-0.163
CTAACTAA	-0.238
AAGGTGTG	0.369
CGCCTCTA	0.0591
AAGTTGAC	0.0103
GGTTTGAC	-0.0343
AGAACCTC	-0.167
AGACCTTC	-0.138
CGGCATCC	0.089
GGTGCGAC	0.116
CGGAAAAA	-0.144
GGCTCATA	-0.201
CCCGGCCC	0.167
AGTACGAG	-0.178
CCTAGTGC	0.0947
CCGGTTCA	0.0854
ACACAGCT	0.148
CAACACGG	0.38

Sequence	binding signal [E-score]
GGTCTAGA	0.028
CGCATGGC	-0.19
CACGATCC	0.314
ATCGCGAT	-0.217
CCTAGAGC	-0.0423
CCCTCGGC	0.0181
AATTACTA	-0.0221
AACAACAT	-0.316
CGCCCTCA	-0.00666
ATGTCTGG	-0.106
AGATCATA	0.0411
ATTTAAGA	-0.142
GGGCCTCA	-0.205
ACGCGCAT	0.0823
CGTACGCC	0.145
GTCAACGA	-0.0001
ATAAGAAT	-0.26
ACGTTCGC	-0.156
CTGTTTGC	-0.169
GAGAGGGC	-0.191
GATTGAGA	-0.103
GAGCGCCC	-0.135
ATTAGGCA	-0.101
CTATTTTA	-0.119
CTGTAAGC	-0.218

Sequence	binding signal [E-score]
CGCAGACG	-0.0609
AAAGCCGA	0.00121
CTCTTTGC	-0.109
AGTTACCG	-0.00915
CGACTCTA	0.0362
ATTTTATG	-0.186
GGGATTAC	0.0966
CGGTATGA	-0.0385
CATCATCC	-0.122
TACTAGGA	0.00636
ACGGGGAA	0.027
AAATCATC	-0.288
CTTTCAAC	0.0495
GCTAGTAA	-0.173
TATACACA	0.169
AGCGTGAG	0.04
GCTCTGCC	-0.358
TAGTTCAA	-0.221
TCGGATAA	0.194
TATCTGAA	-0.129
TGTTACAA	0.0708
ACCGATCC	0.0829
ACTTCTGC	-0.0736
CTTGCCTC	0.141
AAATGAAT	-0.149

Sequence	binding signal [E-score]
GCGTCATA	0.0536
AGGCCTAA	-0.0975
AAGTGCCC	-0.118
ACGGTGGA	0.111
CACTGTGC	0.204
CAGCTAGG	-0.0209
GTTCTTTA	-0.0924
TGAATGCA	-0.106
AACCGGTT	-0.0456
GCCTGCTA	-0.118
GTCATTAA	0.0473
ATTGGGTC	-0.00874
AAACTAAT	-0.222
AGGATACA	0.159
AGAATGTG	-0.254
ACGTAAAT	-0.068
CGCCTACA	0.0684
AACTTAAA	-0.212
TCGTCTCA	-0.162
CGAGGACG	0.0644
CGTCTGAG	-0.0152
GCATCACA	-0.00293
GCTTATGA	0.0776
GGCGCGGA	0.0656
TAGTATAA	0.0661

Sequence	binding signal [E-score]
GCGTGAAA	0.012
AGCAAGTA	-0.164
CTATTGCC	-0.126
GTACAGGA	-0.0674
AAAATCAC	-0.121
CCATCTTA	-0.0861
CACTGAAC	0.0968
CACGATAA	0.054
GAAAAGGC	-0.147
AACCGCTC	-0.232
TACACGCA	0.406
CCGGGAGC	-0.02
CAGTCGGC	-0.108
AGCGCCAC	-0.179
GCGTTGAC	-0.0852
AAGGTCGA	-0.0495
CGATTATC	0.0712
TAATCATA	-0.115
TGTTGCAA	0.0416
TCTCGCAA	-0.00392
CCGCTTCG	0.00142
CCCAGCTC	0.0946
AATTCTGT	-0.299
CGTGTCAG	0.441
CCGGCATA	0.0203

Sequence	binding signal [E-score]
AGGCTACT	-0.193
ATTCTCGG	-0.136
CGCAAGTA	-0.0605
AACGACGA	-0.176
ATACACTA	0.364
ATACGCGG	-0.0353
GTGGGAAC	0.0129
GGCGGGTA	0.214
CGGGCCGC	-0.00792
ATGGGGGA	0.0776
GATTGGCC	-0.185
CATTCTTA	-0.19
AGGGGACT	-0.0962
GCACTCAA	0.062
CTTTTCTA	-0.252
ATCTCCTA	-0.114
AACATCGG	-0.138
GCCAAGCC	0.00385
CGTGCACA	0.0927
ACCAGTTC	-0.0186
AGGTCTGA	-0.245
AGGTGTAC	0.47
ACATGTTC	-0.138
CACCACAG	0.322
TCTTTTAA	-0.233

Sequence	binding signal [E-score]
AAAACTCT	-0.121
CCGGGTGA	0.117
GTCTGAAA	-0.107
GGCACCAC	0.215
ACGACGGC	0.00715
ACCTCAGT	0.0287
ACGGATTA	0.0359
CATTCGAC	0.0651
GCAATAAA	-0.183
AATCCAAT	-0.204
AGCGGGAC	-0.261
AAGGCGAT	-0.18
ATGGCAGG	-0.174
CTAGTGAC	0.00443
AGACGGCC	-0.14
GACCGTAC	-0.0799
ATGGCGAA	-0.277
ATAGAATC	-0.0937
TATTTAGA	0.0442
CTGTCAAA	-0.194
AAACCCGG	0.0514
ACCACATC	0.0577
ACTCTCCT	0.0415
CGCCCTAG	-0.0371
ACCTGACT	0.0579

Sequence	binding signal [E-score]
ATCTTTTG	-0.338
CCTAGTCA	0.0973
AAAGACCC	0.102
GATGCGCC	-0.218
ATTCGTCA	-0.131
CCACTACG	-0.0483
GCACCCTA	0.226
GAGATGAC	-0.165
AGAGAATA	-0.199
CGACCTAC	0.0148
ACACGTCT	0.344
ATGGACAA	-0.034
GAACTAGA	-0.167
CGACTGCA	-0.0638
CTCCTTGA	0.0951
GTCTCGTA	-0.0192
AAATGCAT	-0.143
GATATTTA	0.0247
CACAAATA	-0.0659
ACGTCATC	-0.104
AGTAAAAA	-0.0492
CGTGGTAC	-0.138
GCACATCC	-0.292
ATGTCATG	-0.104
ATGTAGAG	-0.02

Sequence	binding signal [E-score]
CCCAGCTA	-0.0464
AAGGATAG	0.025
CCGAGGGC	-0.143
GACGGTTA	-0.0383
CTATCCTC	-0.107
AGCCGGGG	0.0624
AGGAGCAA	-0.254
AGTCGAGG	0.07
AGCAGAAC	-0.187
CAGTATCC	0.162
ATAACACA	0.24
AGCAAGCT	-0.135
CGTTGGCC	-0.102
CCCGTTAA	-0.0124
GACGCTAA	-0.108
GAGAGATA	-0.00422
GAACAGCC	-0.249
AAGTAGAA	-0.122
CGCTCATA	-0.267
